This is an account of results in paper PMC12820563, “FoxP3 forms a head-to-head dimer in vivo and stabilizes its multimerization on adjacent microsatellites”.

The list shows a part of the results.

The experiment has as its target T1, MBP-FoxP1dN (Mus musculus, UniProt P58462 326-579).
T1 sequence: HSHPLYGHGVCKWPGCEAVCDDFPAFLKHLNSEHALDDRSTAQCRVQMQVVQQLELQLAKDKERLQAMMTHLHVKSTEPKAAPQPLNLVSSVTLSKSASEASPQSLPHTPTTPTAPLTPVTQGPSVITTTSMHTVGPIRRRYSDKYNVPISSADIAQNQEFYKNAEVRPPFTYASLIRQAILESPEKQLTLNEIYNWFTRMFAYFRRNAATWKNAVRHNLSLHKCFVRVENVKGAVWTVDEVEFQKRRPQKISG
Briefly: PD-seq (MBP pull-down with sequencing); 20 mM Tris-HCl pH 7.5, 100 mM NaCl, 1.5 mM MgCl2, 0.4 uM protein, 0.1 uM dsDNA library, 30 min, room temperature, amylose pull-down; high values mean tight binding. The following applies: protein: recombinant; tags: His6-MBP; chain copies: 2; dsDNA, one strand shown. The procedure, abridged: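 A fragment of mouse FoxP3 or FoxP1 without its N-terminus, carrying a His6-MBP tag and produced in E. coli, was combined at 0.4 µM with a 0.1 µM degenerate double-stranded DNA library filled in with Klenow. The mixture sat for 30 min at room temperature in Tris pH 7.5 buffer containing NaCl and MgCl2. Protein–DNA complexes were captured on amylose resin, washed three times, and the DNA was freed with proteinase K, barcoded by PCR and sequenced on Illumina. Binding is expressed as reads-per-million enrichment of pull-down over input, with replicates pooled.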
For “GATGATTGTTCTCCCAGCTGATGAATTCCTATTGTCGAGTAAACAAATTTTCCTAATCTTTCTGTTCAAGCGCCATCTAC”, the binding signal was 2.02 RPM ratio (pull-down/input). For “GATGATTGTTCTCCCAGCTGATGAATTAAGTTTTTCGAGTAAACAAATTTTCCTAATCTTTCTGTTCAAGCGCCATCTAC” the value was 1 RPM ratio (pull-down/input); for “GATGATTGTTCTCCCAGCTGATGAATTGGTAGGTTCGAGTAAACAAATTTTCCTAATCTTTCTGTTCAAGCGCCATCTAC”, 0.963 RPM ratio (pull-down/input). Regarding “GATGATTGTTCTCCCAGCTGATGAATTTTTACCATCGAGTAAACAAATTTTCCTAATCTTTCTGTTCAAGCGCCATCTAC”, the binding signal is 1.01 RPM ratio (pull-down/input). For “GATGATTGTTCTCCCAGCTGATGAATTAAGTAGTTCGAGTAAACAAATTTTCCTAATCTTTCTGTTCAAGCGCCATCTAC”, the binding signal was 0.858 RPM ratio (pull-down/input). For “GATGATTGTTCTCCCAGCTGATGAATTGCGATCCTCGAGTAAACAAATTTTCCTAATCTTTCTGTTCAAGCGCCATCTAC” the value was 0.949 RPM ratio (pull-down/input); for “GATGATTGTTCTCCCAGCTGATGAATTACACCATTCGAGTAAACAAATTTTCCTAATCTTTCTGTTCAAGCGCCATCTAC”, 1.27 RPM ratio (pull-down/input).

As to “GATGATTGTTCTCCCAGCTGATGAATTATTTGGGTCGAGTAAACAAATTTTCCTAATCTTTCTGTTCAAGCGCCATCTAC”, the binding signal was 1.29 RPM ratio (pull-down/input). For “GATGATTGTTCTCCCAGCTGATGAATTTCTCGTTTCGAGTAAACAAATTTTCCTAATCTTTCTGTTCAAGCGCCATCTAC” the value was 0.859 RPM ratio (pull-down/input); for “GATGATTGTTCTCCCAGCTGATGAATTACTAGGCTCGAGTAAACAAATTTTCCTAATCTTTCTGTTCAAGCGCCATCTAC”, 0.914 RPM ratio (pull-down/input). To “GATGATTGTTCTCCCAGCTGATGAATTGTGCGACTCGAGTAAACAAATTTTCCTAATCTTTCTGTTCAAGCGCCATCTAC” belongs 0.994 RPM ratio (pull-down/input); to “GATGATTGTTCTCCCAGCTGATGAATTTTCTTAATCGAGTAAACAAATTTTCCTAATCTTTCTGTTCAAGCGCCATCTAC”, 1.01 RPM ratio (pull-down/input); to “GATGATTGTTCTCCCAGCTGATGAATTGAGAACATCGAGTAAACAAATTTTCCTAATCTTTCTGTTCAAGCGCCATCTAC”, 1.07 RPM ratio (pull-down/input). For “GATGATTGTTCTCCCAGCTGATGAATTAGCGCGCTCGAGTAAACAAATTTTCCTAATCTTTCTGTTCAAGCGCCATCTAC”, the binding signal is 0.859 RPM ratio (pull-down/input). For “GATGATTGTTCTCCCAGCTGATGAATTAACGTCTTCGAGTAAACAAATTTTCCTAATCTTTCTGTTCAAGCGCCATCTAC” the value was 0.901 RPM ratio (pull-down/input).

With “GATGATTGTTCTCCCAGCTGATGAATTAACACGTTCGAGTAAACAAATTTTCCTAATCTTTCTGTTCAAGCGCCATCTAC”, the binding signal is 1.05 RPM ratio (pull-down/input). To “GATGATTGTTCTCCCAGCTGATGAATTTTGGCTATCGAGTAAACAAATTTTCCTAATCTTTCTGTTCAAGCGCCATCTAC” belongs 0.908 RPM ratio (pull-down/input).

“GATGATTGTTCTCCCAGCTGATGAATTCGTCCGTTCGAGTAAACAAATTTTCCTAATCTTTCTGTTCAAGCGCCATCTAC”: the binding signal is 0.846 RPM ratio (pull-down/input).

Turning to “GATGATTGTTCTCCCAGCTGATGAATTTGCAAGCTCGAGTAAACAAATTTTCCTAATCTTTCTGTTCAAGCGCCATCTAC”, the binding signal is 0.929 RPM ratio (pull-down/input).

On to “GATGATTGTTCTCCCAGCTGATGAATTTAGGCACTCGAGTAAACAAATTTTCCTAATCTTTCTGTTCAAGCGCCATCTAC”, for which the binding signal was 0.916 RPM ratio (pull-down/input). To “GATGATTGTTCTCCCAGCTGATGAATTTATCTGATCGAGTAAACAAATTTTCCTAATCTTTCTGTTCAAGCGCCATCTAC” belongs 1.07 RPM ratio (pull-down/input); to “GATGATTGTTCTCCCAGCTGATGAATTCATTATTTCGAGTAAACAAATTTTCCTAATCTTTCTGTTCAAGCGCCATCTAC”, 1.04 RPM ratio (pull-down/input). On to “GATGATTGTTCTCCCAGCTGATGAATTGCATATATCGAGTAAACAAATTTTCCTAATCTTTCTGTTCAAGCGCCATCTAC”, for which the binding signal was 1.33 RPM ratio (pull-down/input).

Take “GATGATTGTTCTCCCAGCTGATGAATTTAATCCATCGAGTAAACAAATTTTCCTAATCTTTCTGTTCAAGCGCCATCTAC”: the binding signal was 0.882 RPM ratio (pull-down/input). For “GATGATTGTTCTCCCAGCTGATGAATTGAAATGTTCGAGTAAACAAATTTTCCTAATCTTTCTGTTCAAGCGCCATCTAC” the value was 0.864 RPM ratio (pull-down/input); for “GATGATTGTTCTCCCAGCTGATGAATTGGGCATATCGAGTAAACAAATTTTCCTAATCTTTCTGTTCAAGCGCCATCTAC”, 0.94 RPM ratio (pull-down/input). To “GATGATTGTTCTCCCAGCTGATGAATTCCCCCGATCGAGTAAACAAATTTTCCTAATCTTTCTGTTCAAGCGCCATCTAC” belongs 0.785 RPM ratio (pull-down/input). For “GATGATTGTTCTCCCAGCTGATGAATTTACGTAATCGAGTAAACAAATTTTCCTAATCTTTCTGTTCAAGCGCCATCTAC” the value was 1.82 RPM ratio (pull-down/input); for “GATGATTGTTCTCCCAGCTGATGAATTGGTCAATTCGAGTAAACAAATTTTCCTAATCTTTCTGTTCAAGCGCCATCTAC”, 1.08 RPM ratio (pull-down/input).

Take “GATGATTGTTCTCCCAGCTGATGAATTGTAGGCATCGAGTAAACAAATTTTCCTAATCTTTCTGTTCAAGCGCCATCTAC”: the binding signal is 1.17 RPM ratio (pull-down/input). To “GATGATTGTTCTCCCAGCTGATGAATTTGACAGCTCGAGTAAACAAATTTTCCTAATCTTTCTGTTCAAGCGCCATCTAC” belongs 0.79 RPM ratio (pull-down/input); to “GATGATTGTTCTCCCAGCTGATGAATTTATCATCTCGAGTAAACAAATTTTCCTAATCTTTCTGTTCAAGCGCCATCTAC”, 1.11 RPM ratio (pull-down/input).
